# Results published in US9493440B2, “Compounds inhibiting leucine-rich repeat kinase enzyme activity” (Merck Sharp & Dohme Corp., priority 2013, dated 2016).
# Target: LRRK2(G2019S mutation, GST-LRRK2(amino acids 970-2527)) (Homo sapiens (Human), UniProt Q5S007, G2019S)
# Assay: LRRK2 Km ATP LanthaScreen Assay
# Conditions: not given
row,IC50,Structure (SMILES)
1,28.6 nM,c1nc(-c2n[nH]c3ccc(OC4CCOCC4)cc23)cc(N2CCOCC2)n1 [Example V2]

# Same assay, conditions: read-out: LRRK2 IC50; Km ATP LanthaScreen Assay, mean IC50
row,Structure (SMILES),IC50
1,CC1(Oc2ccc3[nH]nc(-c4cc(N5CCN(S(=O)(=O)C6CC6)CC5)ncn4)c3c2)CC1 [Example 34],0.99 nM
2,CC1(Oc2cc3c(-c4cc(N5CCC(F)(C#N)CC5)ncn4)n[nH]c3cc2F)CC1 [Example 189],1.1 nM
3,C[C@@H]1COCCN1c1cc(-c2n[nH]c3ccc(OC4(C)CC4)cc23)ncn1 [Example 116],3.3 nM
4,C[C@@H]1CN(c2cc(-c3n[nH]c4ccc(OC5(C)CC5)cc34)ncn2)CCN1C [Example 16],< 0.6 nM
5,CC1(Oc2cc3c(-c4cc(N5CC[S+]([O-])CC5)ncn4)n[nH]c3cc2F)CC1 [Example 170],0.6 nM
6,CC1(Oc2ccc3[nH]nc(-c4cc(N5C[C@H](F)[C@@H](F)C5)ncn4)c3c2)CC1 [Example 7],3.92 nM
7,CCC1(Oc2ccc3[nH]nc(-c4cc(N5CCO[C@H](C)C5)ncn4)c3c2)CC1 [Example 211],0.99 nM
8,COCC(C)N1CCN(c2cc(-c3n[nH]c4ccc(OC5(C)CC5)cc34)ncn2)CC1 (stereo not drawn) [Example 121],1.1 nM
9,CC1(Oc2ccc3[nH]nc(-c4cc(N5C6CCC5COC6)ncn4)c3c2)CC1 [Example 103],2.2 nM
10,CC1(Oc2ccc3[nH]nc(-c4cc(N5CCN(Cc6ncco6)CC5)ncn4)c3c2)CC1 [Example 120],1.2 nM
11,CC1(Oc2ccc3[nH]nc(-c4cc(N5CCN(CC6CCCO6)CC5)ncn4)c3c2)CC1 (stereo not drawn) [Example 115],0.7 nM
12,Cc1noc(C2CN(c3cc(-c4n[nH]c5ccc(OC6(C)CC6)cc45)ncn3)C2)n1 [Example 66],3 nM
13,CC1(Oc2ccc3[nH]nc(-c4cc(N5CCN(Cc6ccncc6)CC5)ncn4)c3c2)CC1 [Example 81],2.1 nM
14,CC1(Oc2cc3c(-c4cc(N5CC6CCC(C5)O6)ncn4)n[nH]c3cc2F)CC1 [Example 154],1.93 nM
15,CC1(Oc2ccc3[nH]nc(-c4cc(N5CCN(C(=O)C6CCCO6)CC5)ncn4)c3c2)CC1 (stereo not drawn) [Example 49],3 nM
16,COCCN1CCN(c2cc(-c3n[nH]c4ccc(OC5(C)CC5)cc34)ncn2)CC1=O [Example 20],1.01 nM
17,CN1C2CCC1CN(c1cc(-c3n[nH]c4ccc(OC5(C)CC5)cc34)ncn1)C2 [Example 235],4.44 nM
18,CC1(Oc2ccc3[nH]nc(-c4cc(N5CCOC6(CCCC6)C5)ncn4)c3c2)CC1 [Example 98],1.6 nM
19,CC1c2nc(C(F)(F)F)nn2CCN1c1cc(-c2n[nH]c3cc(F)c(OC4(C)CC4)cc23)ncn1 (stereo not drawn) [Example 193],16.8 nM
20,CC(C)CC1COCCN1c1cc(-c2n[nH]c3ccc(OC4(C)CC4)cc23)ncn1 (stereo not drawn) [Example 106],6.6 nM
21,C[C@@H]1CN(c2cc(-c3n[nH]c4cc(F)c(OC5(C)CC5)cc34)ncn2)CCO1 [Example 151],< 0.6 nM
22,CN1C[C@@H]2C[C@H]1CN2c1cc(-c2n[nH]c3ccc(OC4(C)CC4)cc23)ncn1 [Example 108],10.3 nM
23,C[C@H]1[C@H](N)[C@@H](O)CN1c1cc(-c2n[nH]c3cc(F)c(OC4(C)CC4)cc23)ncn1 [Example 206],0.99 nM
24,CC(C(F)F)N1CCN(c2cc(-c3n[nH]c4ccc(OC5(C)CC5)cc34)ncn2)CC1 (stereo not drawn) [Example 124],0.9 nM
25,CC1(Oc2cc3c(-c4cc(N5CCN(CCF)CC5)ncn4)n[nH]c3cc2F)CC1 [Example 159],0.67 nM
26,C[C@H]1C[C@@H](N)CN1c1cc(-c2n[nH]c3ccc(OC4(C)CC4)cc23)ncn1 [Example 221],1.54 nM

row,Structure (SMILES),IC50
1,CC1(Oc2cc3c(-c4cc(N5CC[C@@H](CO)C5)ncn4)n[nH]c3cc2F)CC1 [Example 169],1.1 nM
2,CC1CN(C)CCN1c1cc(-c2n[nH]c3ccc(OC4(C)CC4)cc23)ncn1 (stereo not drawn) [Example 35],1.03 nM
3,CC1(Oc2ccc3[nH]nc(-c4cc(N5CC6CCC(C5)O6)ncn4)c3c2)CC1 [Example 29],1.59 nM
4,CC1(Oc2cc3c(-c4cc(N5CCC(F)(F)C5)ncn4)n[nH]c3cc2F)CC1 [Example 172],0.9 nM
5,Cn1cc(N2CCN(c3cc(-c4n[nH]c5cc(F)c(OC6(C)CC6)cc45)ncn3)CC2)cn1 [Example 177],1.9 nM
6,CC1(Oc2ccc3[nH]nc(-c4cc(N5CCN(CCO)C(=O)C5)ncn4)c3c2)CC1 [Example 231],0.73 nM
7,CC1(Oc2ccc3[nH]nc(-c4cc(N5CCN(C6CCCCC6)C(=O)C5)ncn4)c3c2)CC1 [Example 104],1.2 nM
8,CCC1(Oc2ccc3[nH]nc(-c4cc(N5CCOCC5)ncn4)c3c2)CC1 [Example 208],0.95 nM
9,CCC1(Oc2ccc3[nH]nc(-c4cc(N5CCO[C@H](C)C5)ncn4)c3c2)COC1 [Example 196],1.51 nM
10,Cc1cnc(C)c(N2CCN(c3cc(-c4n[nH]c5cc(F)c(OC6(C)CC6)cc45)ncn3)CC2)n1 [Example 178],1.2 nM
11,CO[C@H]1CN(c2cc(-c3n[nH]c4cc(F)c(OC5(C)CC5)cc34)ncn2)C[C@@H]1O [Example 187],1.3 nM
12,CC1(Oc2ccc3[nH]nc(-c4cc(N5CCC(F)(CO)CC5)ncn4)c3c2)CC1 [Example 87],1.9 nM
13,COCCNc1cc(-c2n[nH]c3ccc(OC4(C)CC4)cc23)ncn1 [Example 89],4.2 nM
14,CC1(Oc2ccc3[nH]nc(-c4cc(N5CCC5)ncn4)c3c2)CC1 [Example 45],3.9 nM
15,CC1(Oc2cc3c(-c4cc(N5CCN(CC6CCCO6)CC5)ncn4)n[nH]c3cc2F)CC1 (stereo not drawn) [Example 176],0.7 nM
16,CC(C1CCC1)N1CCN(c2cc(-c3n[nH]c4ccc(OC5(C)CC5)cc34)ncn2)CC1 (stereo not drawn) [Example 123],1.1 nM
17,CN1CCN(c2cc(-c3n[nH]c4cc(F)c(OC5(C)CC5)cc34)ncn2)CC1=O [Example 156],< 0.6 nM
18,CC1(Oc2cc3c(-c4cc(N5CCN(S(C)(=O)=O)CC5)ncn4)n[nH]c3cc2F)CC1 [Example 155],< 0.6 nM
19,CC1(Oc2ccc3[nH]nc(-c4cc(N5CCC(n6cccn6)CC5)ncn4)c3c2)CC1 [Example 80],5 nM
20,CC1(Oc2ccc3[nH]nc(-c4cc(N5CCN(c6cc(C(C)(C)O)ccn6)CC5)ncn4)c3c2)CC1 [Example 147],1.5 nM
21,CC1(Oc2cc3c(-c4cc(N5CCN(CCCO)CC5)ncn4)n[nH]c3cc2F)CC1 [Example 182],1.6 nM
22,CC1(Oc2ccc3[nH]nc(-c4cc(N5CCN(C6CCS(=O)(=O)C6)CC5)ncn4)c3c2)CC1 (stereo not drawn) [Example 100],0.8 nM
23,CCOC(=O)N1CCN(c2cc(-c3n[nH]c4ccc(OC5(C)CC5)cc34)ncn2)CC1 [Example 114],2.1 nM
24,C[C@@H]1COC[C@@H](C)N1c1cc(-c2n[nH]c3cc(F)c(OC4(C)CC4)cc23)ncn1 [Example 191],13 nM
25,CC1(Oc2ccc3[nH]nc(-c4cc(N5CCN(c6ccncn6)CC5)ncn4)c3c2)CC1 [Example 68],3 nM
26,CCCN1CCN(c2cc(-c3n[nH]c4ccc(OC5(C)CC5)cc34)ncn2)CC1=O [Example 223],1.04 nM

row,Structure (SMILES),IC50
1,CC1(Oc2ccc3[nH]nc(-c4cc(N5CC(O)C5)ncn4)c3c2)CC1 [Example 63],2 nM
2,CC1(Oc2ccc3[nH]nc(-c4cc(N5CCC(F)(F)CC5)ncn4)c3c2)CC1 [Example 62],5.5 nM
3,CC1(Oc2ccc3[nH]nc(-c4cc(N5CCN(c6cnc(C#N)cn6)CC5)ncn4)c3c2)CC1 [Example 146],1.8 nM
4,C[C@@H](CO)Nc1cc(-c2n[nH]c3ccc(OC4(C)CC4)cc23)ncn1 [Example 64],13.8 nM
5,C[C@@H]1COC[C@H](C)N1c1cc(-c2n[nH]c3cc(F)c(OC4(C)CC4)cc23)ncn1 [Example 192],1.6 nM
6,CN1CCN(c2cc(-c3n[nH]c4ccc(OC5(C)CC5)cc34)ncn2)CC1=O [Example 4],2.47 nM
7,COC(=O)N1CCN(c2cc(-c3n[nH]c4ccc(OC5(C)CC5)cc34)ncn2)CC1 [Example 76],2.4 nM
8,CCC1(Oc2ccc3[nH]nc(-c4cc(N5CC[C@H](N)C5)ncn4)c3c2)CC1 [Example 213],3.43 nM
9,CC1(Oc2cc3c(-c4cc(N5CCN(c6nncs6)CC5)ncn4)n[nH]c3cc2F)CC1 [Example 180],0.7 nM
10,Cc1cnc(N2CCN(c3cc(-c4n[nH]c5ccc(OC6(C)CC6)cc45)ncn3)CC2)nc1 [Example 148],1.9 nM
11,CC(C(F)F)N1CCN(c2cc(-c3n[nH]c4ccc(OC5(C)CC5)cc34)ncn2)C[C@H]1C (stereo partly drawn) [Example 140],1.8 nM
12,COCCN1CCN(c2cc(-c3n[nH]c4ccc(OC5(C)CC5)cc34)ncn2)C[C@H]1C [Example 138],2.3 nM
13,CC1(Oc2ccc3[nH]nc(-c4cc(N5CCN6CCC5CC6)ncn4)c3c2)CC1 [Example 84],8.2 nM
14,COCC(C)N1CCN(c2cc(-c3n[nH]c4ccc(OC5(C)CC5)cc34)ncn2)C[C@@H]1C (stereo partly drawn) [Example 131],0.6 nM
15,Cc1nonc1N1CCN(c2cc(-c3n[nH]c4cc(F)c(OC5(C)CC5)cc34)ncn2)CC1 [Example 174],0.6 nM
16,CC1(Oc2ccc3[nH]nc(-c4cc(N5CC(N6CCOCC6)C5)ncn4)c3c2)CC1 [Example 77],6.4 nM
17,CC1(Oc2ccc3[nH]nc(-c4cc(N5CCN(CCO)CC5)ncn4)c3c2)CC1 [Example 8],1.17 nM
18,Cn1cc(N2CCN(c3cc(-c4n[nH]c5ccc(OC6(C)CC6)cc45)ncn3)CC2)cn1 [Example 61],1.4 nM
19,COCCN1CCN(c2cc(-c3n[nH]c4ccc(OC5(C)CC5)cc34)ncn2)CC1 [Example 52],1.5 nM
20,CC1(Oc2ccc3[nH]nc(-c4cc(N5CCN(c6nnc(C7CC7)o6)CC5)ncn4)c3c2)CC1 [Example 65],4.1 nM
21,CC1(Oc2ccc3[nH]nc(-c4cc(N5CCO[C@H](CO)C5)ncn4)c3c2)CC1 [Example 24],0.78 nM
22,CC1(Oc2ccc3[nH]nc(-c4cc(N5CCOC6(CC6)C5)ncn4)c3c2)CC1 [Example 6],1.51 nM
23,CCC1(Oc2ccc3[nH]nc(-c4cc(N5C[C@H](O)[C@@H](O)[C@@H]5C)ncn4)c3c2)CC1 [Example 217],1.63 nM
24,CC1(Oc2ccc3[nH]nc(-c4cc(N5CCC[C@@H](O)C5)ncn4)c3c2)CC1 [Example 71],3.5 nM
25,C[C@H]1CN(c2cc(-c3n[nH]c4ccc(OC5(C)CC5)cc34)ncn2)CCN1CCC(F)(F)F [Example 134],0.8 nM
